Assay results from PubChem BioAssay AID493208 (National Center for Advancing Translational Sciences (NCATS), 2011).
Hit rate of the full screen: of about 44,000 compounds, about 340 (0.77%) were called active. Not shown: some 5% with an inconclusive outcome. The call rests on the fitted dose curve; in most records, active means well fitted inhibition curve with a large enough effect; inconclusive means small, poorly fitted or top-dose-only effect; inactive means flat fitted curve, though single readings scatter. The list shows a part of the results.

Assay: Acumen qHTS Assay for Inhibitors of the mTORC1 Signaling Pathway in MEF (Tsc2-/-, p53-/-) Cells: Sytravon; further: nearly all actives have a fitted effect of over 50% in size;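 on activity change, negative = inhibition: plate controls were DMSO for no effect and rapamycin for full effect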
Settings: phospho-rpS6 immunofluorescence/PI, 24 h; series mostly up to 38.3 µM; activity change, negative = inhibition: at the top concentration
Method in brief: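 Compounds act on Tsc2-/-, p53-/- fibroblasts carrying an empty vector for 24 h before fixation and dual staining for phospho-S6 and DNA (propidium iodide). Values are percentages of cells above a rapamycin-defined pS6/PI threshold.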
Potency means the concentration at half of the fitted maximal effect.

SMILES	activity change, negative = inhibition	Potency
Cc1cc(C(F)(F)F)nn1-c1nc(-c2ccccc2)cc(C(F)(F)F)n1	inactive: -16.4%	–
Cc1cc(=O)n(CC(=O)Nc2ccc([N+](=O)[O-])cc2)c(-n2nc(C)cc2C)n1	inactive: 0.666%	–
COc1ccc(CCN2C(=O)c3[nH]nc(-c4ccccc4O)c3C2c2cccc(OC)c2)cc1 (configuration not stated)	–	active: 14.7 µM
Cc1ccccc1NC(=O)Cn1c(=O)n(CCc2ccccc2)c(=O)c2sc3ccccc3c21	inactive: -6.49%	–
Cc1[nH]c2ccccc2c1C(c1ccccc1)c1cccs1 (configuration not stated)	inactive: 6.36%	–
Cc1cccc(-n2c(SCc3nc(-c4ccccc4C)no3)nnc2-c2ccccc2)c1	inactive: -6.08%	–
CN1CCN(c2oc(/C=C/c3ccc(F)cc3)nc2C#N)CC1	inactive: 3.16%	–
CCOC(=O)c1ccccc1NS(=O)(=O)c1ccc(N2CCCCS2(=O)=O)cc1	inactive: 0%	–
COc1cc(NC(=O)c2nn(-c3ccc(C)cc3)c(=O)c3c2c2ccccc2n3C)cc(OC)c1OC	inactive: 1.17%	–
CCc1nn(CC(=O)NC(C)CC)c(=O)c2cc3c(OC)cccc3n12 (configuration not stated)	inactive: -0.289%	–
COc1ccc(-c2noc(-c3ccc(N4CCN(c5ccc(OC)cc5)CC4)c([N+](=O)[O-])c3)n2)cc1	inactive: 1.49%	–
CCOc1ccc(-n2nc(CO)c(C(=O)NCc3cccnc3)n2)cc1	inactive: -2.65%	–
COc1cccc(N2CCN(C(=O)c3cc4c(=O)n(Cc5ccccc5)ccc4nc3C)CC2)c1	inactive: 0.728%	–
Cc1cccn2c(=O)c(C(=O)NCc3ccccc3Cl)c(O)nc12	inactive: -0.41%	–
COc1cc(C)ccc1OCCCn1c(-c2ccc(Cl)cc2)nc2ccccc2c1=O	inactive: 0.092%	–
Cc1ccccc1-c1nc(CS(=O)CC(=O)N2CCN(c3cc(Cl)ccc3C)CC2)c(C)o1 (configuration not stated)	inactive: -6.39%	–
CCC(=O)N1c2ccccc2CC1C(=O)NCc1cccc(C)c1 (configuration not stated)	inactive: 0%	–
CCCCC(=O)Nc1cccc(-c2nc3ncccc3o2)c1C	inactive: 5.56%	–
CCN(CC)CCCNC(=O)Cn1nc(C)n2c(cc3sccc32)c1=O	inactive: -4.86%	–
Cc1ccc(C(=O)c2oc3ccccc3c2NC(=O)Cc2coc3cc(C)ccc23)cc1	inactive: -3.6%	–
CCCCc1ccc(NC(=O)Cn2nnc3sc4c(c3c2=O)CCC(C)C4)cc1 (configuration not stated)	inactive: -1.29%	–
COc1ccc(CCNC(=O)Cn2c(=O)n(-c3ccc(C)c(C)c3)c(=O)c3c(C)c(C)sc32)cc1OC	inactive: 7.12%	–
COc1ccc(Cn2nnc3c(=O)[nH]c(C4CCCN(C(=O)c5ccc(C)cc5)C4)nc32)cc1 (configuration not stated)	inactive: -5.1%	–
Cc1nn(S(=O)(=O)c2ccccc2)c(C)c1S(=O)(=O)N1CCC(C)CC1	inactive: -5.49%	–

SMILES	activity change, negative = inhibition	Potency
CCc1ccccc1NC(=O)Cn1ccn(-c2cc(C)cc(C)c2)c(=O)c1=O	inactive: -4.26%	–
COc1ccc(NC(=O)c2ccc3oc(=O)c(S(=O)(=O)c4ccc(C)cc4)cc3c2)cc1OC	inactive: 2.19%	–
CCOc1cccc(C2Nc3ccccc3-c3cc(C)nn32)c1O (configuration not stated)	inactive: 1.81%	–
Clc1cccc(CSc2nncn3c2cc2sccc23)c1	inactive: -3.58%	–
COc1ccc(OC)c(C(=O)c2c(N)c(-c3nc(-c4ccc(C)c(C)c4)cs3)c3ccccn23)c1	inactive: -3.66%	–
CCn1c(=NC(=O)c2ccc3c(c2)OCCO3)sc2c(C)ccc(OC)c21	inactive: -18.6%	–
CCOC(=O)C1(C)C=C(Nc2ccc(Br)cc2)C(=O)N1c1ccccc1 (configuration not stated)	inactive: -24.5%	–
Cc1ccc(NC(=O)CSc2nc(C)c(Cc3ccccc3)c(=O)[nH]2)cc1C	inactive: -10%	–
Cc1ccc(OCC(=O)Nc2ccc(OCc3cc(=O)n4cccc(C)c4n3)cc2)cc1C	inactive: -0.225%	–
COc1ccc(CCNC(=O)Cc2c(C)c3c(cc(C)c4c(C)coc43)oc2=O)cc1OC	inactive: -1.06%	–
Cc1nn(C(C)C(=O)NC2CCCCC2)c(=O)c2c1sc1ccccc12 (configuration not stated)	–	active: 1.04 µM
Cc1ccc(-c2nnc(Nc3ccc(Br)cc3)c3ccccc23)cc1S(=O)(=O)N1CCN(C)CC1	inactive: -15.8%	–
COc1ccc(CC(=O)NC2CC(=O)N(c3cccc(F)c3)C2)cc1 (configuration not stated)	inactive: -0.303%	–
COc1ccc(CCNC(=O)c2ccc3c(c2)CCN3S(C)(=O)=O)cc1	inactive: -1.64%	–
COc1ccc2c(CNCc3ccc(C)o3)c(C(=O)O)n(Cc3ccccc3C)c2c1	inactive: -4.78%	–
CCN(C(=O)C(=O)Nc1ccc2nc3n(c(=O)c2c1)CCCCC3)c1ccc(F)cc1	inactive: -5.39%	–
Cc1ccc2sc(N(Cc3cccnc3)C(=O)CCOc3ccccc3)nc2c1C	inactive: 5.8%	–
Cc1c(C(=O)N(Cc2ccc(N(C)C)cc2)C2CCS(=O)(=O)C2)oc2ccccc12 (configuration not stated)	inactive: 6.69%	–
O=C(c1ccc2c(c1)N(Cc1ccccc1)C(=O)c1ccccc1S2(=O)=O)N1CCN(c2ccccc2)CC1	inactive: 1.51%	–
COc1ccc(OC)c(C2NC(=O)NC(C)=C2C(=O)Nc2cc(C)cc(C)c2)c1 (configuration not stated)	inactive: 15.9%	–
O=C(Nc1c(C(=O)N2CCN(c3ccc(F)cc3)CC2)oc2ccccc12)c1c(F)cccc1F	inactive: -10.2%	–
COc1ccc(C2CC(=O)c3cc(-c4nc(-c5cccc([N+](=O)[O-])c5)cs4)c(=O)n(-c4ccc(C)c(C)c4)c3C2)cc1 (configuration not stated)	inactive: -1.86%	–
CC(C)Oc1ccc(C(=O)Nc2ccc3c(c2)CCCN3C(=O)c2cccs2)cc1	inactive: 0%	–
